PubChem BioAssay AID686978 (National Center for Advancing Translational Sciences (NCATS), 2013)
Values joined by “and” are separate entries in the source; they are usually repeats but may differ in a detail not shown here. Identical values can stand only once. In all, about 420,000 compounds went through this assay and about 64,000 (15%) were called active. Inconclusive results, whose numbers are uncertain, are shown with a selection of clear calls. Calls follow the shape of the dose curve; as a rule, active = well fitted inhibition curve with a large enough effect; inconclusive = small, poorly fitted or top-dose-only effect; inactive = flat fitted curve, though single readings scatter. No potency is given beside an inconclusive call; the fits are too rough.

Experiment: qHTS for Inhibitors of human tyrosyl-DNA phosphodiesterase 1 (TDP1): qHTS in cells in absence of CPT; also: nearly all actives have a fitted effect of over 55% in size
Conditions: DT40 Tdp1-/- hTDP1 cells, no CPT, ATP luminescence, 48 h; activity change, negative = growth inhibition: at 46.2 µM (top of the series) unless noted
How it was run: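 A cellular qHTS used chicken DT40 cells lacking endogenous Tdp1 but carrying stably transfected human TDP1. Compounds were applied without camptothecin, and cell growth kinetics were judged by ATP-dependent luminescence after ≥48 hr.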
% is scaled to controls: 0 for no effect and ±100 for the full control effect; potency is read from the fitted curve at half-maximal effect; tags tell the direction and shape of the fitted curve.

Row | Structure (SMILES) | Potency | activity change, negative = growth inhibition
1 | Cc1ccc(C(O)(C(=O)OC(C)C)C(O)c2ccccc2)cc1 (configuration not stated) | inconclusive [inhibitor, single point] | –
2 | CCC1(CC)C(=O)N(Cc2ccccc2)C(=O)N(Cc2ccccc2)C1=O | inconclusive [inhibitor, single point] | –
3 | Cc1ccc(OP2(=O)Nc3cc(C)c(C)cc3S2)cc1 (configuration not stated) | inconclusive [inhibitor, single point] | –
4 | Oc1ccc(Cl)cc1Sc1cc(Cl)ccc1O | active: 13.3 µM and active: 18.4 µM | –
5 | Cc1ccc(S(=O)(=O)N2CC3CC(C2)c2cccc(=O)n2C3)cc1 (configuration not stated) | – | inactive: -12.6%
6 | CCc1nn(CC(=O)N2CCC3(CC2)OCCO3)c(=O)c2cccn12 | – | inactive: -11.9%
7 | O=C1NC2C(O)C(O)C(O)C(O)C2c2cc3c(c(O)c21)OCO3 (configuration not stated) | active: 0.0731 µM | –
8 | O=C1CSC2(CN3CCC2CC3)N1 (configuration not stated) | – | inactive: 11.8%
9 | CCC(C)c1ccc(N2C(=O)NC(=O)/C(=C/c3cccn3CCOc3ccc(C)cc3)C2=O)cc1 (configuration not stated) | inconclusive [inhibitor, single point] | –
10 | C[N+]1(C)C2CC(OC(=O)C(CO)c3ccccc3)CC1C1OC12 (configuration not stated) | inactive | –
11 | COc1cc2c(cc1OC)[C@H]1C(=O)c3ccc4c(c3O[C@H]1CO2)C[C@@H](C(C)(C)O)O4 | active: 11.6 µM | –
12 | Cc1cc(C(=O)CS(=O)c2ccc(F)cc2)cc(C)c1OC(=O)N(C)C (configuration not stated) | inconclusive [inhibitor, partial curve, poor fit] | –
13 | [O-][N+](=Nc1ccccc1)c1ccccc1 | inconclusive [inhibitor, single point] | –
14 | Cc1noc(C)c1CSCC(=O)Nc1ccc(C#N)c(Cl)c1 | inconclusive [inhibitor, single point] | –
15 | CCCC1(CCC)C(=O)NC(=NCc2ccccc2)NC1=O | active: 13 µM | –
16 | COC(=O)C1=C(c2ccc(F)cc2F)C[C@@H]2CC[C@H]1N2C(=O)N1CCC(O)CC1 | – | inactive: -12.9%
17 | CN(N)N=Nc1nc2c([nH]1)c(=O)n(C)c(=O)n2C | – | inactive: -1.96%
18 | CC[C@H]1CC2CN3CCc4c([nH]c5cc(OC)ccc45)[C@](C(=O)OC)(C2)[C@H]13 | inconclusive [inhibitor, single point] | –
19 | CN1c2ccc([N+](=O)[O-])cc2CC2(C(=O)NC(=O)N(c3ccc(Br)cc3)C2=O)C1c1ccccc1 (configuration not stated) | active: 18.4 µM | –
20 | Fc1ccc(N2Cc3ccccc3-n3nncc3C2)cc1 | inconclusive [inhibitor, single point] | –
21 | Cc1cc(C(=O)CS(=O)(=O)c2ccc(F)cc2)cc(C)c1OC(=O)N(C)C | inconclusive [inhibitor, single point] | –
22 | O=C(c1ccc2c3c(cccc13)CC2)C1CCCN(Cc2ncc[nH]2)C1 (configuration not stated) | inconclusive [inhibitor, single point] | –
23 | O=C(COC(=O)Cc1ccccc1)Nc1cc(S(=O)(=O)N2CCCCC2)ccc1Cl | – | inactive: -18%
24 | Cc1ccc(N2CCN(C(=O)c3cn(CC4CCCCC4)nn3)C(C)C2)cc1 (configuration not stated) | inconclusive [inhibitor, single point] | –

Row | Structure (SMILES) | Potency | activity change, negative = growth inhibition
25 | CN1C(=O)C(=Cc2ccc(Sc3ccccc3)o2)C(=O)N(C)C1=O | inconclusive [inhibitor, single point] | –
26 | C=CCn1c(O)c(C(CC)=NCc2cc(OC)cc(OC)c2)c(=O)[nH]c1=O | active: 7.31 µM | –
27 | O=c1[nH]c(CN2CC=C(c3ccccc3)CC2)nc2scc(-c3ccccc3)c12 | inconclusive [inhibitor, single point] | –
28 | O=S(=O)(c1ccccc1)N1CCCCC1c1cccnc1 (configuration not stated) | inconclusive [inhibitor, partial curve] | –
29 | CCC(C)C(=O)c1c(O)c(C)c2oc3c(C)c(O)c(C(=O)C(C)CC)c(O)c3c2c1O (configuration not stated) | inconclusive [inhibitor, single point] | –
30 | CC(C)CC(N)c1csc(NC(=O)Nc2ccccc2-c2ccccc2)n1 (configuration not stated) | active: 18.4 µM | –
31 | O=C(CCn1c(=O)oc2ccccc21)N1CCN(C(c2ccccc2)c2ccccc2)CC1 | inconclusive [inhibitor, single point] | –
32 | CC(=O)C1CCC2C3CCC4CC(O)CCC4(C)C3CCC12C#N (configuration not stated) | inconclusive [inhibitor, single point] | –
33 | CCCC1COC(Cn2cncn2)(c2ccc(Cl)cc2Cl)O1 (configuration not stated) | inconclusive [inhibitor, single point] | –
34 | CCOP(=O)(OCC)C(Cc1ccccc1)NC(C)=O (configuration not stated) | – | inactive: -11%
35 | OC1(c2ccc(Cl)cc2)CCN(Cc2c[nH]c3ccccc23)CC1 | active: 21.1 µM and active: 9.2 µM and active: 16.4 µM | –
36 | Clc1ccccc1C1NCc2ccccc2-n2cccc21 (configuration not stated) | inconclusive [inhibitor, single point] | –
37 | CCCC1CCCCC12C(=O)NC(=O)NC2=O (configuration not stated) | inconclusive [inhibitor, single point] | –
38 | Cc1nn(C(C)(C)C)c(C)c1/C=N/OC(=O)Nc1ccc(Cl)c(Cl)c1 | active: 16.4 µM | –
39 | CSc1ccc(CNC(C)C(O)c2ccccc2)cc1 (configuration not stated) | inconclusive [inhibitor, single point] | –
40 | COC(=O)C1=C(c2ccc(F)cc2OCc2ccccc2)C[C@@H]2CC[C@H]1N2C(=O)N1CCC(O)CC1 | inconclusive [inhibitor, single point] | –
41 | C[C@H](NC(=O)CCC(=O)N1C[C@H]2C[C@H](C1)c1cccc(=O)n1C2)c1ccccc1 | – | inactive: 4.51%
42 | CN1CCN(C(=O)COc2ccc(S(=O)(=O)Nc3ccc(Cl)cc3)cc2)CC1 | – | inactive: 1.79%
43 | COc1cc(O)c(C(=O)O)c(-c2cc(O)c(O)cc2C)c1 | active: 16.4 µM | –
44 | C=C[C@H]1CN2CC[C@H]1C[C@H]2[C@H](O)c1ccnc2ccccc12 | inconclusive [inhibitor, partial curve] | –
45 | COC(=O)N1CCC2(CCN(CC(C)C)CC2)CC1 | – | inactive: -11.4%
46 | O=C(Oc1ccnc2cc(Cl)ccc12)N1CCOCC1 | inconclusive [inhibitor, partial curve, poor fit] | –
47 | COP(=O)(OC)c1nc(-c2ccccc2)oc1NCc1ccccc1 | inconclusive [inhibitor, single point] | –
48 | CC(=O)c1ccc2c(c1)OCO2 | – | inactive: -1.08%

Row | Structure (SMILES) | Potency | activity change, negative = growth inhibition
49 | CSCCC(c1nnnn1-c1c(C)cccc1C)N1CCC(n2c(=O)[nH]c3ccccc32)CC1 (configuration not stated) | active: 18.4 µM | –
50 | COc1ccc2c(c1)[C@@]13CCC=C[C@H]1[C@@H](C2)NCC3 | inconclusive [inhibitor, partial curve] | –
51 | CN1CCC(N(C)c2nc(-c3ccc([N+](=O)[O-])cc3)nc3ccccc23)CC1 | active: 11.6 µM | –
52 | O=C(c1ccco1)c1cn(Cc2ccccc2Cl)c2ccccc12 | inconclusive [inhibitor, single point] | –
53 | COc1cccc(C2CCN(C)C2)c1 (configuration not stated) | inconclusive [inhibitor, single point] | –
54 | CC(C)N1CCN(Cc2cc3c(cc2Cl)OCO3)CC1CCO (configuration not stated) | – | inactive: -9.45%
55 | CCCC(C)(COC(N)=O)COC(N)=O | – | inactive: -7.77%
56 | CCCCOc1ccc(CN2CCN(CC)CC2)cc1 | inconclusive [inhibitor, partial curve] | –
57 | CNCCc1ccc(O)c(O)c1 | active: 13 µM and active: 5.17 µM | –
58 | C=CCn1c(O)c(C(CC)=NC(C)c2ccccc2)c(=O)[nH]c1=O (configuration not stated) | inconclusive [inhibitor, single point] | –
59 | CCCCn1c(O)c(C(CC)=NCc2ccc3c(c2)OCO3)c(=O)[nH]c1=O | inconclusive [inhibitor, single point] | –
60 | C(=NN1CCCCCC1)c1c[nH]c2ccccc12 | – | inactive: -16.8%
61 | CCOC(=O)C1(CCCc2ccccc2)CCN(C2CCC2)CC1 | inconclusive [inhibitor, single point] | –
62 | CC(C)OP(=O)(OC(C)C)C(Nc1ccc([N+](=O)[O-])cc1)c1cccc([N+](=O)[O-])c1 (configuration not stated) | active: 18.4 µM | –
63 | Oc1cc2c(cc1O)[C@H]1c3ccccc3CN[C@@H]1CC2 | active: 12.6 µM | –
64 | COc1c(Cl)cc(Cl)cc1C(=O)Nc1cccc(-c2nc3ccccc3o2)c1C | inconclusive [inhibitor, partial curve, poor fit] | –
65 | C=CCN1C(=O)C2(C(C(=O)OC)=C(N)Oc3c2c(=O)oc2ccccc32)c2ccccc21 (configuration not stated) | inconclusive [inhibitor, single point] | –
66 | CCOC(=O)c1c(/N=C/c2c(O)n(-c3ccccc3F)c(=S)[nH]c2=O)sc2c1CCCC2 | inconclusive [inhibitor, full curve, poor fit] | –
67 | COc1ccccc1C(=O)Nc1ccc2nc(SCC(=O)N3CCCc4ccccc43)sc2c1 | active: 2.91 µM | –
68 | CCCC[N+]12CCC(CC1)C(C(O)(c1ccccc1)c1ccccc1)C2 (configuration not stated) | – | inactive: -25.1%
69 | Cc1cc(=O)oc2cc(Oc3ccc([N+](=O)[O-])cc3C(F)(F)F)ccc12 | inconclusive [inhibitor, single point] | –
70 | Cc1ccc(C)c(S(=O)(=O)c2nnn3c2nc(N2CCN(C)CC2)c2sccc23)c1 | inconclusive [inhibitor, single point] | –
71 | COc1ccc(C(=O)Oc2c(CN3CCOCC3)cc(Cl)c3cccnc23)cc1OC | active: 3.26 µM and active: 5.62 µM | –
72 | COc1cccc(-n2c(/C=C/c3ccccn3)nc3ccccc3c2=O)c1 | inconclusive [inhibitor, single point] | –
